The full ranking holds about 33,000 sequences; the median of “E-score (-0.5 to 0.5)” is about -0.036, and the highest 2% start at about 0.37. This is one part of the list.
These sequences were tested against T1, Yer064c (UniProt P40041) (assay: PBM E-score (8-mer binding enrichment) (E-score (-0.5 to 0.5)); higher = stronger / more preferred TF binding; most listed sequences are background and not binding sites). Details: protein concentration: 200 nM; construct: GST-full length.
T1 sequence: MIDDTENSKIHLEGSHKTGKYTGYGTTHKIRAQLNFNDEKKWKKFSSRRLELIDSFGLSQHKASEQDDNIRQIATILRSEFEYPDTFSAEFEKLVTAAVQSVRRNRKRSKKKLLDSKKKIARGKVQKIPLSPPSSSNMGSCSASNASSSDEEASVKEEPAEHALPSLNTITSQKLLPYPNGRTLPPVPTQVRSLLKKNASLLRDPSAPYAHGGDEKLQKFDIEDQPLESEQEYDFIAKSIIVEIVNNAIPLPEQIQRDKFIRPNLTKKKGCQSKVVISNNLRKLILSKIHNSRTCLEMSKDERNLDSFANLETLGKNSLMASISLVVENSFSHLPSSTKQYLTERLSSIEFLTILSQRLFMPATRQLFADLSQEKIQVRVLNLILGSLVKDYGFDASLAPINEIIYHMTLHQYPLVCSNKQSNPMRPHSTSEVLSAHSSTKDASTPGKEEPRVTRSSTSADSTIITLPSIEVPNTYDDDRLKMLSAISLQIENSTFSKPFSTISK
Procedure, shortened: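 The E-score, a modified Wilcoxon-Mann-Whitney statistic, was computed by the Universal PBM Analysis Suite for every ungapped eight-base word pooled with its reverse complement. Scans behind it were normalised with masliner after bound GST-tagged yeast transcription factors were detected with fluorescent anti-GST. The proteins, at about 100-200 nM, had been applied to universal all-10-mer Agilent arrays made double-stranded by primer extension.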

Row | Sequence | PBM E-score
1 | CGCTTTCC | -0.249
2 | AAGTGGTG | -0.155
3 | AGTTTCTA | 0.0581
4 | GCCGAGAA | -0.121
5 | CTTTCAGC | -0.134
6 | AACCCCTT | -0.19
7 | CGGCTATA | -0.00264
8 | AGTGCGCC | -0.288
9 | TCGATTAA | 0.26
10 | CTTACCTA | -0.165
11 | GACTCGAC | 0.391
12 | CAAGCACC | -0.261
13 | CTCCAAAA | 0.0696
14 | CATGGAGG | -0.124
15 | ACCACACG | 0.0547
16 | GCCTGGTA | -0.135
17 | CTAGCGCC | -0.0965
18 | GGTCTAAC | 0.0653
19 | GCTGTTAC | -0.238
20 | CACTACCA | -0.0175
21 | AAGTGTGC | -0.218
22 | AACCAACT | 0.202

Row | Sequence | PBM E-score
23 | GTAGAGAC | 0.0689
24 | ACATAACC | -0.0712
25 | ATTTGGTC | -0.0536
26 | ACGCATCC | -0.25
27 | CAGCGTGG | -0.0592
28 | CCTTTTGA | 0.111
29 | GCGTACAA | -0.0611
30 | CACGGCTC | 0.036
31 | ACTATGCG | -0.00447
32 | AGCATGAA | 0.0913
33 | ATGACCTC | 0.0843
34 | AATGGTCT | 0.014
35 | CTCGCATC | -0.0808
36 | GGGCAAGA | -0.0907
37 | ACTCAGCG | 0.269
38 | GATTAGAA | 0.157
39 | CTATGTTA | 0.0174
40 | CTTCAGAC | 0.0391
41 | CATGTACA | -0.0824
42 | CCGTTTAC | -0.0907
43 | AACTGCGC | -0.165
44 | AGGGGAAA | -0.177

Row | Sequence | PBM E-score
45 | AATTGGCG | -0.156
46 | CCGTGACG | -0.0138
47 | CAACGTCC | -0.367
48 | AAGATTTG | -0.00676
49 | GTAGCCAC | 0.147
50 | GATGATGA | 0.256
51 | ATTACTCC | 0.117
52 | AAGATTGT | 0.0577
53 | CAACTAGA | -0.014
54 | AAGATATC | 0.181
55 | GAGTAGGA | 0.0914
56 | CTATTTGC | -0.14
57 | CCTCGTTA | -0.0212
58 | CTTATATA | 0.0765
59 | CGCACTTC | -0.172
60 | AAATTACA | 0.0217
61 | GTCAAATA | 0.248
62 | GCGGCTTA | -0.0746
63 | ACATCTTC | -0.0459
64 | AAGAGGCT | -0.00252
65 | GGTCGGCA | -0.0818
66 | TCCCTAGA | 0.0526

Row | Sequence | PBM E-score
67 | GATCGCGC | -0.115
68 | CGTTCATA | 0.0128
69 | CAACCTGA | 0.0275
70 | CATGCCGC | -0.0993
71 | CACGATAA | -0.00322
72 | GAGTTTGA | 0.243
73 | ACCGTTAA | -0.00419
74 | CATATACG | 0.0223
75 | ACCTGGCC | -0.19
76 | ACGGAAAC | -0.0437
77 | GGAGCTCC | -0.293
78 | CCTGGGCG | -0.146
79 | AACAAGGA | -0.053
80 | CGAGTGCC | -0.179
81 | ATTTATCG | -0.0143
82 | CCTACCAG | -0.195
83 | GCATACTA | -0.136
84 | CCTAGCTA | 0.0333
85 | CACATTTA | 0.0214
86 | CAGAAAGA | -0.0113

Reference: the supplement of paper PMC3334620
